Experimental data from PubChem BioAssay AID485281 (National Center for Advancing Translational Sciences (NCATS), 2010).
Screen size: about 350,000 compounds; about 260 (0.074%) were called active. Inconclusive means that the source gave no clear call. Such entries were picked first, then a sample of the others. Calls follow the shape of the dose curve; as a rule, active = well fitted inhibition curve with a large enough effect; inconclusive = small, poorly fitted or top-dose-only effect; inactive = no such curve, though single readings can be large or run the other way. A potency beside an inconclusive call is a rough fit, not a confirmed value.

target: Ferritin light chain (Equus caballus) (UniProt P02791); assay: qHTS Assay for Identification of Novel General Anesthetics; conditions: apoferritin/1-aminoanthracene competitive binding, fluorescence; series mostly up to 77.5 µM; also: nearly all actives have a fitted effect of over 20% in size
Outline: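 Apoferritin-based anesthetic binding model; compound displacement of fluorescent 1-AMA measured as endpoint fluorescence after 10 minutes at room temperature, scaled to free-ligand and complex controls.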
Potency is read from the fitted curve at half-maximal effect; tags tell the direction and shape of the fitted curve.

UniProt P02791, sequence (P02791 whole entry, looked up): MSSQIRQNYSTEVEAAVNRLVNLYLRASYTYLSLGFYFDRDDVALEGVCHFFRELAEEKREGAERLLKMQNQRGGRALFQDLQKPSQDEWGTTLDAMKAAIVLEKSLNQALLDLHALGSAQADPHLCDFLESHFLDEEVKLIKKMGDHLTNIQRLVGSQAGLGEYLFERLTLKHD

Potency, inconclusive:
Cc1cccc(NC(=O)c2nc(S(=O)(=O)Cc3ccccc3)ncc2Cl)c1 22.4 µM [inhibitor, partial curve], CCC(C)c1ccc(O)c(/C=N/O)c1 (stereo not given) 20 µM [inhibitor, partial curve], O=C(NCC1c2ccccc2CCN1C(=O)CN1C(=O)c2ccccc2C1=O)C1CCCCC1 (stereo not given) 39.8 µM [inhibitor, single point], Cc1cc([N+](=O)[O-])ccc1NCc1ccccc1[N+](=O)[O-] 5.62 µM [inhibitor, full curve], COc1ccccc1N1CCN(C(=O)CSc2nc(-c3ccco3)cc(C(F)(F)F)n2)CC1 15.8 µM [inhibitor, partial curve], Cc1c(C(C)NC(=O)c2cc(COc3cccc4cnccc34)on2)cnn1C (stereo not given) 15.8 µM [inhibitor, partial curve], CCCCOC(=O)c1ccc(NC(=S)NC(=O)c2c(Cl)cnn2CC)cc1 15.8 µM [inhibitor, partial curve], O=C(NC(=S)Nc1cccc(-c2ccc(CO)o2)c1)c1cccs1 22.4 µM [inhibitor, partial curve], CCCOc1ccc(CNC(=O)c2cc3ccccn3n2)cc1 4.47 µM [inhibitor, full curve, poor fit], Cc1oc2c(c1C(=O)c1ccccc1)C(=O)C(=O)c1ccccc1-2 39.8 µM [inhibitor, partial curve], Cc1cccc(N2CCN(C(=S)c3ccc(-c4ccccc4[N+](=O)[O-])o3)CC2)c1 56.2 µM [inhibitor, single point], CCCN(CCC)S(=O)(=O)c1cccc(C(=O)Nc2ccc3c(c2)OCO3)c1 35.5 µM [inhibitor, partial curve], NS(=O)(=O)c1cccc(NC(=O)COC(=O)CN2C(=O)C3CC=CCC3C2=O)c1 (stereo not given) 22.4 µM [inhibitor, partial curve], CC1=CCC2C(=O)N(c3ccc(C)c(Br)c3)C(=O)C2C1 (stereo not given) 39.8 µM [inhibitor, partial curve], CCCCN1C(=O)c2ccc(C(=O)NC3=NCCS3)cc2C1=O 15.8 µM [inhibitor, partial curve], O=C(CSCC(=O)OCC(=O)c1ccc(Br)cc1)Nc1cccc2ccccc12 11.2 µM [inhibitor, partial curve], Cn1c(SCC(=O)OC2CCCCC2)nnc1-c1ccc2c(c1)OCO2 7.94 µM [inhibitor, partial curve], CC(C)c1ccc(/C=N/NC(=O)CC(=O)NC2CCCCC2)cc1 3.98 µM [inhibitor, full curve], Cc1ccccc1N=C(NO)c1nonc1N 25.1 µM [inhibitor, partial curve], Cc1ccccc1NCCNc1ccccc1C 20 µM [inhibitor, partial curve], COC(=O)c1[nH]c2cccc(Cl)c2c1NC(=O)CN(C)C1CCCCC1 35.5 µM [inhibitor, partial curve], CCC(C)c1ccc(NC(=O)CC(C)=O)cc1 (stereo not given) 35.5 µM [inhibitor, partial curve], Cc1ccc(CNC(=O)c2ccc(CS(=O)(=O)c3ccccc3C)o2)cc1 25.1 µM [inhibitor, single point], Cc1ccc(C(=O)c2cnc3ccccc3c2-c2ccccc2)cc1 22.4 µM [inhibitor, partial curve], COc1ccc(Cl)cc1NCCC(O)c1ccc(F)cc1 (stereo not given) 35.5 µM [inhibitor, partial curve], Nc1ccc(O)cc1C(=O)OCC(=O)c1ccc(C2CCCCC2)cc1 50.1 µM [inhibitor, single point], Fc1ccc(NCc2cccnc2)cc1F 31.6 µM [inhibitor, single point], CC1(C)CC2CC(C)(CN2C(=O)c2cc(-c3ccc(O)cc3)on2)C1 (stereo not given) 50.1 µM [inhibitor, single point], COc1ccccc1N1CCN(C(=O)Nc2cccc(Cl)c2)CC1 39.8 µM [inhibitor, partial curve], CS(=O)(=O)N(CC(=O)NCC1CCCO1)c1cccc(Cl)c1 (stereo not given) 12.6 µM [inhibitor, partial curve], Clc1ccc(OCCSc2ncccn2)cc1 35.5 µM [inhibitor, single point], O=C(c1ccc(Br)s1)N1CCc2ccccc2C1 25.1 µM [inhibitor, partial curve], N#Cc1nc(COc2cccc(Cl)c2)oc1NCc1ccco1 22.4 µM [inhibitor, partial curve], COc1ccc(C(=O)N2CCc3ccc(NC(=O)c4ccccn4)cc3C2)cc1F 17.8 µM [inhibitor, partial curve], COc1ccc(Cc2nc(C(=O)Nc3ccc(F)cc3)cs2)cc1 17.8 µM [inhibitor, partial curve], O=C(/C=C/c1ccc(O)cc1)c1ccccc1O 31.6 µM [inhibitor, partial curve], CC(NC(=O)c1ccc([N+](=O)[O-])o1)C12CC3CC(CC(C3)C1)C2 (stereo not given) 35.5 µM [inhibitor, single point], CC1CN(C(=O)Nc2ccc(C(=O)NCCc3ccccc3Cl)cc2)c2ccccc2S1 (stereo not given) 22.4 µM [inhibitor, partial curve], CCOC(=O)c1c(C)[nH]c(N=Nc2ccc(C)cc2C)c1C 15.8 µM [inhibitor, partial curve], CCCCSc1nc2sc3c(c2c(=O)n1-c1ccccc1)CCN(C)C3 35.5 µM [inhibitor, single point], COc1ccc(C=C(C#N)C#N)c(CSc2ccccn2)c1 31.6 µM [inhibitor, partial curve], CCOc1ccc(C(C)=O)cc1Cn1nc(C(=O)O)c2ccccc2c1=O 39.8 µM [inhibitor, single point], COc1ccc(-c2nn3c(COc4ccccc4)nnc3s2)cc1OC 3.55 µM [inhibitor, full curve, poor fit], CC1Cc2cc(-c3csc(N)n3)ccc2O1 (stereo not given) 28.2 µM [inhibitor, single point], COc1ccc(C(=O)N/C(=C\c2cn(S(=O)(=O)N(C)C)c3ccccc23)C(=O)NCCCn2ccnc2)cc1 39.8 µM [inhibitor, single point], Cc1ccc(C(=O)Nc2cccc(N3C(=O)C4CCC(C)CC4C3=O)c2)cc1 (stereo not given) 25.1 µM [inhibitor, partial curve], COc1ccc(C(=O)N/N=C/c2ccc(OC)c(CN3CCc4cc(OC)c(OC)cc4C3C)c2)cc1 (stereo not given) 11.2 µM [inhibitor, partial curve], CCN(CC)CC(=O)Nc1c(C)cc(C(C)(C)C)cc1C 8.91 µM [inhibitor, partial curve], Cc1nnc(N2CCCC(C(=O)NCc3ccc(OC(C)C)cc3)C2)c2nn(-c3ccccc3)c(C)c12 (stereo not given) 6.31 µM [inhibitor, full curve, poor fit], Cc1cc(C)cc(N2C(=O)CC(N3CCOCC3)C2=O)c1 (stereo not given) 31.6 µM [inhibitor, partial curve], O=C(NCc1ccccc1Cl)c1ccc(Br)o1 35.5 µM [inhibitor, partial curve]

Potency, inactive:
Oc1ccc(-c2nc(-c3ccc(O)c(O)c3)cs2)cc1, COc1ccc(-c2cc3nc(C)n(N)c(=O)c3s2)cc1, Cc1cccc(NC(=O)c2cc(-c3cc(C)ccc3O)n[nH]2)c1, CCOC(=O)N1CCC(NCCNC(=O)c2ccccc2Cl)CC1, COc1ccccc1C/C(N)=N/OC(=O)c1cccc([N+](=O)[O-])c1C, O=C1/C(=C/c2ccncc2)Oc2cc(OS(=O)(=O)c3ccccc3)ccc21, COc1ccc(NC(=O)NCCCN2CCC(Cc3ccccc3)CC2)cc1, OC1(c2ccc(F)cc2)CCN(Cc2cccnc2)CC1, COc1cc(/C=C2/SC(=S)N(Cc3ccccc3)C2=O)cc(Cl)c1O, CC(=O)N1N=C(c2cccnc2)OC1c1ccc(C(C)C)cc1 (stereo not given), COc1ccc2c(Sc3ccc(Cl)cc3)c(C(=O)N3CCCCC3)[nH]c2c1, O=C(CCC1CCCCC1)NCc1ccc(F)cc1, CN1C2CCC1/C(=C\c1ccc(F)cc1)C(=O)/C2=C/c1ccc(F)cc1, CCCCn1c(N)c(NCCC(C)C)c(=O)[nH]c1=O, CCOC(=O)c1c(C)[nH]c(C=O)c1Cc1cccc(Cl)c1, CC(/C=C/c1ccco1)=N/NC(=O)Cc1cccs1, Nc1cc(=O)nc(SCC(=O)N2CCN(c3ccccc3)CC2)n1-c1ccccc1, CCN(CC)S(=O)(=O)c1ccc(C)c(NC(=O)CNCc2ccccc2OC)c1, CCOc1ccccc1NC(=O)CCNS(=O)(=O)c1ccc2c(c1)CCN2C(=O)C1CC1
